This is one part of the list.
Tested on: PF3D7_0420300 AP2 domain 1 (GST-tagged)
Assay: gcPBM binding intensity (ln(normalized median fluorescence intensity)); higher = stronger DNA binding
In short: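 GST-tagged P. falciparum DNA-binding domains, expressed in E. coli (about 25 μg on average), were applied for 1 h to an Agilent 4 × 180k array of primer-extended double-stranded 36-bp intergenic genomic probes plus negative controls. The binding buffer was 1× PBS with 1% milk, 0.2 mg/ml BSA, 0.5% salmon testes DNA and 0.03% Triton X-100. Bound protein was detected with Alexa488 anti-GST antibody and scanned at 488 nm. Binding intensity is the highest Masliner-normalised natural-log median intensity across replicate spots of either probe orientation.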

Row | Sequence | gcPBM binding intensity (ln)
1 | AAACAATTGAATAAATGTACAGATACATTTTTTTAA [XGTACX_site5386] | 8.99
2 | AAAAATAAACAAAATTGTACACATTACATACATATA [XGTACX_site966] | 9.6
3 | TATATATATATATGTAGTACTCAATATTGTAGATTA [XGTACX_site3856] | 9.1
4 | AAATATATGTATATATGTACATATGTGTGCTATCAT [XGTACX_site1604] | 9.45
5 | TAATTTTTTTTTAATTGTACATGTGAATATATTTCA [XGTACX_site4115] | 9.18
6 | GTTTACATTTTAAGAAGTACAAAATTTATGGTTAAA [XGTACX_site450] | 9.07
7 | TTTAAATACAGACATACACACATACACAGACATATA [CACACA_site4460] | 9.91
8 | AAAAAAAACAGACACACACACATACAAAATATATAT [CACACA_site1449] | 10.2
9 | ATATTTTTATGTACTTCAAAAAAAAAGAAAAACAAA [CACACA_negctrl_site970] | 9.05
10 | CTCTATTGTTAAAAGGTGCTTTTATGATTTTATATA [GTGCAC_site9409] | 9.35
11 | TATAGTTTTGAAAACAAACACACAAAAAAAAAAAAA [CACACA_site1691] | 9.26
12 | AAGAGGTTAATGAAATGTACACATATATATATATAT [XGTACX_site1861] | 9.3
13 | TTTTTTTTCTATGTGGTGCACATTATTTTTTTTTTT | 9.41
14 | ATAATTTCACAAATAGTGCAAAAATTAGTAAGAATA [GTGCAC_site9648] | 9.25
15 | TTTTATAAATATTATACATGCATAATGATAAAAAAA [TGCATGCA_site927] | 9.09
16 | AAGAAAAGAACAAGAGCATGCACTTAATAAGAATAA [TGCATGCA_site818] | 9.24
17 | TTAATATATTTTAAAAGTACATAATATTATTTTTTA [XGTACX_site3642] | 8.88
18 | ATACAAAAGGGGAATACACACACATATATATATATA [CACACA_site8694] | 9.65
19 | AATAAACATAGATGTACACACATATACAGATATATA [CACACA_site5570] | 9.7
20 | TTGTTCTATATATATGCATGCACGTATGTTAAATTA [TGCATGCA_site659] | 9.27
21 | TCTCATATATTGAATTGTACATATGTTAAAATATAG [XGTACX_site6764] | 9.05
22 | TATTAATTTTTATACGCATGTGTATAGTAATATATA [TGCATGCA_site1010] | 9.08
23 | TATAAGTATTAATACACACACAAAATAATAAAAAAA [CACACA_site3481] | 10.1

Row | Sequence | gcPBM binding intensity (ln)
24 | AAAAATAAAGGATATACACACTAATTCTATAAATAT [CACACA_site7344] | 9.61
25 | GTCTCGATAATGAAAAGTACAAAATAAAAATAATAA [XGTACX_site6471] | 9.19
26 | TAAAGAATAATACATTCACACAATATTATAAAAATA [CACACA_site5986] | 9.22
27 | GAAATGTCATATAATAGTACACACATGAAAATATAA [XGTACX_site6838] | 9.55
28 | TATGATTAATTACCACAATTGACAAAAAAAAAAAAA [CACACA_negctrl_site336] | 9.04
29 | TTGTATGAATTTATTTTTATTGATAATTAATATGTA [TGCATGCA_negctrl_site143] | 9.13
30 | ATATAACTTTTAAAAGCATGCAAATATTTACTCAAT [TGCATGCA_site396] | 9.27
31 | TTTTTACTATAAGGGGAAAAAAAAAAAAATAATATA [XGTACX_negctrl_site279] | 8.98
32 | CAAGAAAAGAAACACACACACATATATATATATATA [CACACA_site3881] | 9.87
33 | TAAACATATACACGTACATGCAACGGATTTTTTTTT [TGCATGCA_site70] | 9.29
34 | TATATATATATATGTGCACACATAATAAAAAAAAAA [CACACA_site3830] | 9.56
35 | ATATGATTAATTAAGTGTACGTATTTATAATTATAA [XGTACX_site5783] | 9.2
36 | ATTACAATTTTAATAGTGCATTTTTATATATTTCTA [GTGCAC_site9918] | 9.28
37 | TTTATTTATCTTTACGCACACACTTGCATGTACAAA [CACACA_site1118] | 9.58
38 | TACCTACCTTTACGGAGTACACAATAATAGTTATAA [XGTACX_site6593] | 9.16
39 | GATGATACGATTATCACACATTTATACTTTCTACAT [CACACA_site5669] | 9.45
40 | TGTATACATTATTAAGTGCAAGTAGGGAAAAAAAAA | 9.41
41 | ATATAAAAATAATAGAGTACAAAAAAAAAATGTATA [XGTACX_site7054] | 9.65
42 | TAATATGTGGACTTTACACACTTGTTTTAAAATTCT [CACACA_site4605] | 9.35
43 | ATATTTTACATATTTGCACACATATATTTATATACA [CACACA_site855] | 9.65
44 | ATATATATATATATATGTACTTATTTATTTATTTAT [XGTACX_site4645] | 9.26
45 | GAAGACAATTATATGTGTACATATATATACATATAT [XGTACX_site4630] | 9.26
46 | GGAATTCATATTAATTGTACATTTAAAGATAGATGA [XGTACX_site3279] | 8.99

Row | Sequence | gcPBM binding intensity (ln)
47 | AGTAGATATTATTATAGTACTTTTTATTTTATATTT [XGTACX_site1551] | 9.44
48 | AAAATTTATGGAAGGTGTACTGTTAATTATGTATAT [XGTACX_site6446] | 9.31
49 | ATATTAAAGATATATACACACATATTTATAAATATA [CACACA_site7127] | 9.54
50 | TAAGTGTATGTATATAAACACACATACATATATATA [CACACA_site8397] | 9.28
51 | TAATTTAAAAATTCCTGTACTCAGTTTTTTCTATTT [XGTACX_site4961] | 9.3
52 | TATAAAATTATTAAACAAGAAAATTTTAGGTAATAC [TGCATGCA_negctrl_site568] | 9.33
53 | TATAATATATTTTGATGTACAAATATATTATATATA [XGTACX_site8633] | 9.01
54 | ATAATATATTTTTGAACACACAATATATATATATAT [CACACA_site4124] | 9.28
55 | TTGATAAAACGTTATGCACACGTACGTGGGTATTTA [CACACA_site8445] | 9.2
56 | AGTATACACGAACACACACACACATATATAAATATA [CACACA_site6913] | 10.3
57 | TAAAGTATTACAACCACACACACACCCATATATTAT [CACACA_site4159] | 10
58 | TTAATAATGTTTTATTGTACTTTTTTGTGGGTTTAT [XGTACX_site5670] | 9.58
59 | ATATGTATTGGAGTGTGTACATATATATATATTTAT [XGTACX_site5633] | 9.52
60 | GTGCTACATCATATGTGTACATATACCAAACTGTAT [XGTACX_site8233] | 9.42
61 | ATATACATTCAAGGCTGTACACTATATTTTTTTTTT [XGTACX_site6514] | 9.57
62 | TTTGTGTAAAGAATCAGTACATATAATATATATATA [XGTACX_site1972] | 9.17
63 | ATTTTTTTATACAATTTTATATATTAAATATTATAA [GTGCAC_negctrl_site86] | 9.04
64 | TGTATTTTTAACATATGTACGAATAGCACGTGTTAT [XGTACX_site3640] | 9.32
65 | TAAAAATGGGAGGGGTGTACTACACAATAAAATTAT [XGTACX_site5641] | 9.59
66 | CTTGACCCCCTTTGTTGTACTGACATTTGTGAGCTT [XGTACX_site591] | 9.38
67 | ATTTTTTCAAAATGGAAAACTTATCAGTGAAAAAAA [CACACA_negctrl_site1087] | 8.97
68 | TATTTTATATGATAGGTGCATTTTTTTTTTTTTTTT [GTGCAC_site9757] | 9.2
69 | TTTAAAAAAATTCATGCACACGAAATAAAAAGCACC [CACACA_site8214] | 9.71

Row | Sequence | gcPBM binding intensity (ln)
70 | TCTTTTATGCACATTGAGTAAACAACATATTTTTAA [TGCATGCA_negctrl_site561] | 9.12
71 | TTTTTTATTAAAAGTAGTACACATGAAAAAAAAAAA [XGTACX_site5524] | 9.15
72 | TTAATATAGATATAACCACACACATACATCTAATTC [CACACA_site8519] | 9.82
73 | ATTTTTATAGAAATATGTACACAATATGTATATATT [XGTACX_site7993] | 9.09
74 | TTTGTTGACAGACACACACACATACATATATATATA [CACACA_site2288] | 9.83
75 | TATAATAATATAATGGTGCATGTATATAACCATATA | 9.26
76 | AAATAAATATAAATAAATAAATAAATAAATATATAT [CACACA_negctrl_site827] | 9.37
77 | TCTTACGGATTCATTGTGCACATATATATATATATA [GTGCAC_site9896] | 9.51
78 | GCTCTTTTGTTATGGTGTACCCTCCATGTAACATAA [XGTACX_site91] | 9.4
79 | TTAATAATTCTTAAAAGTACATAACTTTTTTTTTTT [XGTACX_site751] | 8.77
80 | TATATATAATTCATACATTTTAAATATATTTATTTA [CACACA_negctrl_site840] | 8.96
81 | TTTTAAAAACGGCATGCATGTAATACATGGAAGGAA [TGCATGCA_site480] | 9.45
82 | ATGTGATAGAAGTACACACACATATGTATTTATAAT [CACACA_site5075] | 9.69
83 | TGTTTTATTTTTTTTGTGCACATACCTTTAGCATCA [GTGCAC_site9812] | 9.36
84 | TAATTATAATAAATATTCATATGTTCAAATATATAT [CACACA_negctrl_site151] | 9.09
85 | TAGAAGTACATATATGCATGTTAATTTTAAAGGAGG [TGCATGCA_site538] | 9.22
86 | ATTAAAAATATTAGTTGTACTTTATATTTTCATATA [XGTACX_site3614] | 9.17
87 | ATATATATATAGTGTTGTACATTTAAAAATAATATA [XGTACX_site2627] | 9.22
88 | AATCAAAATAATTTAACACACAATTTTAATACTGTT [CACACA_site2375] | 9.33
89 | AAATTCCATGAAAAAAGTACTAATTAATACAATATA [XGTACX_site2877] | 9.28
